# Measurements as given in PMC4336329 (PLoS ONE, 2015).
# Screen size: about 310,000 compounds; about 14,000 (4.5%) showed an effect of 50% or more. The effect is printed as a negative number. The list shows a part of the results.
# Target: human ether-à-go-go-related gene (hERG) potassium channel (human, UniProt Q12809)
# Assay: primary screen, population patch clamp on CHO cells stably expressing hERG
# 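Note: peak tail current of the secondary pulse compared with the same well before compound.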
# human ether-à-go-go-related gene (hERG) potassium channel, sequence (Q12809 whole entry, looked up): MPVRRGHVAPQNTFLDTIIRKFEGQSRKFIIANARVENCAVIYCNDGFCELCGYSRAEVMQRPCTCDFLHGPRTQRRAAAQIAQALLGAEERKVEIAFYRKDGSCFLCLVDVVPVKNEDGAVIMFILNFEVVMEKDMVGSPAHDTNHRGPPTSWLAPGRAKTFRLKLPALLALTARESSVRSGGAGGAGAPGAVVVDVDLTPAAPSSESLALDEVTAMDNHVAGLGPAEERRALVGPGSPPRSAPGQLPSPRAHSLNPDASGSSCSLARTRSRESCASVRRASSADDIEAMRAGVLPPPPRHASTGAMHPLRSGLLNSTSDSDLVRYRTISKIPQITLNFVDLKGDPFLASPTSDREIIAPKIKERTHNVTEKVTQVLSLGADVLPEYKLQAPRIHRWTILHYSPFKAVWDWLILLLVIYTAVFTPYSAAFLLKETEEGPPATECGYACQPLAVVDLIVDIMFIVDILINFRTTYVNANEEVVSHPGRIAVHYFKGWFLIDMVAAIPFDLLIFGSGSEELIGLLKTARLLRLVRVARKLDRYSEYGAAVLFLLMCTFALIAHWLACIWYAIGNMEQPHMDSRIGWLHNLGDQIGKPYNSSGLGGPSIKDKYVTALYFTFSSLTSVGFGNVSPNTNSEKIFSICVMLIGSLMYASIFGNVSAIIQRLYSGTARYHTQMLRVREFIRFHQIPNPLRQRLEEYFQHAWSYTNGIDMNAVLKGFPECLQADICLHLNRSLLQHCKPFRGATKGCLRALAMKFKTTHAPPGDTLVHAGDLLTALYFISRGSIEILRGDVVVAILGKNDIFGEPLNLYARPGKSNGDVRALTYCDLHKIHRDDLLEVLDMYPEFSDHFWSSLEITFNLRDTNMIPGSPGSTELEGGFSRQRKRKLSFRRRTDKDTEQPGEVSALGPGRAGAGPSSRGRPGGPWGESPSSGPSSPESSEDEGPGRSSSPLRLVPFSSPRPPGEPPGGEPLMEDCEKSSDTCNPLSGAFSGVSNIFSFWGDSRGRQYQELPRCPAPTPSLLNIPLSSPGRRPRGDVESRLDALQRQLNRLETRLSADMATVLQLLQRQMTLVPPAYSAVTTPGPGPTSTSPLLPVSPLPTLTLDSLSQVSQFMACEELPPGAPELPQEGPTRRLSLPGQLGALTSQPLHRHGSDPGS
row,Structure (SMILES),"hERG current change (%, negative = inhibition) at 10uM [%]"
1,CC(=O)C1C(c2ccc([N+](=O)[O-])cc2)C2C(C)=NN=C2CC1(C)O (stereo not shown),1.71
2,CCCn1cc(S(=O)(=O)CC(=O)Nc2ccc(OC)cc2OC)c2ccccc21,-5.84
3,COc1ccc2cc(C#N)c(NC(C)C)nc2c1,18.6
4,CC(C)c1ccc(-c2nnn(CCC(=O)O)n2)cc1,-2.31
5,CC(=O)C1=C(C)Nc2ncnn2C1c1ccc(O)cc1 (stereo not shown),12.1
6,O=C(c1ccc(S(=O)(=O)N2CCCCCC2)cc1)N1CCC(CN2C(=O)c3cccc4cccc(c34)C2=O)CC1,5.96
7,O=C1SC(SCc2ccccc2)=N/C1=C\c1ccco1,3.04
8,O=C(O)CSCCOc1ccc(OCCSCC(=O)O)cc1,5.28
9,Cc1ccc(CN2CCN(Cc3cc4ccccc4o3)CC2CCO)cc1 (stereo not shown),-43.1
10,Clc1cnc(N/N=C/c2ccncc2)c(Cl)c1,-6.08
11,COc1ccc(CC(NC(C)=O)C(=O)NC2CCN(c3nc(C)cc(C)c3C#N)CC2)c(OC)c1 (stereo not shown),-2.97
12,O=C(CNC(=S)N(Cc1ccccc1)Cc1cccnc1)NCCc1ccccc1,-41.3
13,CCOC(=O)c1cccnc1NC(=O)c1ccncc1,25.3
14,CCN(CC)CCCNC(=O)c1cc2c(=O)n(CC)c3ccccc3c2s1,-14.9
15,CCOC(=O)c1ccc(N(C(=O)c2cnccn2)C(C(=O)NC2CCCCC2)c2cn(C)nc2C)cc1 (stereo not shown),-48.2
16,CC(=O)c1cccc(NC(=O)CCCCCn2nnc3ccccc3c2=O)c1,2.81
17,Cc1ccc(C2/C(=C(\O)c3cnn(-c4ccccc4)c3C)C(=O)C(=O)N2CCN(C)C)o1 (stereo not shown),14.6
18,COC(=O)c1ccccc1NC(=S)N(Cc1ccc2c(c1)OCO2)Cc1cc2ccc(OC)cc2[nH]c1=O,-13.6
19,O=C(Cc1c(O)c2ccccc2[nH]c1=O)NC1CCCCCCC1,-2.96
20,Cc1cc(=O)oc2c(C)c(OC(C)C(=O)N3CC[C@@]4(O)CCCC[C@H]4C3)ccc12 (stereo partly shown),-2.87
21,CC(=O)N(/N=C/c1ccc([N+](=O)[O-])o1)c1nc2ccccc2c(=O)n1-c1ccccc1,-26.8
22,CC(=O)NNC(=O)c1[nH]c2ccc(Cl)cc2c1-c1ccccc1,10.4
23,CC(NC(=O)c1ccc(C(C)(C)C)cc1)C(=O)O (stereo not shown),-0.74
24,Cc1nn(-c2ccccc2)c(C)c1NC(=O)COC(=O)CC(C)c1ccccc1 (stereo not shown),-16
25,Cc1cc(NCc2ccccc2)nc(N2CCOCC2)n1,-21.3
26,O=C(Cn1c2c(c(=O)n3ncnc13)CCC2)N/N=C/c1cccs1,0.665
27,CCCC(=O)Nc1ccc(NC(=O)c2ccccc2)nc1,12.5
28,Cc1cccc(OCC(=O)N2CCC(N3CCCCCC3)CC2)c1,-11.2

row,Structure (SMILES),"hERG current change (%, negative = inhibition) at 10uM [%]"
1,CCOc1ccc(CCNC(=O)CCNC(=O)c2ccccc2Cl)cc1OCC,13.8
2,COCCN1CCN(C(=O)c2ccc3nc(Cc4ccc(OC)c(OC)c4)oc3c2)CC1,2.42
3,O=[N+]([O-])c1ccc(N2CCN(c3ccc(F)cc3)CC2)cn1,-48.7
4,N=c1c(C(=O)NCc2ccc(F)cc2)cc2c(=O)n3ccccc3nc2n1Cc1ccco1,-77.8
5,Cc1cc(C)n(CC(O)Cn2c3ccc(Cl)cc3c3cc(Cl)ccc32)c(=O)n1 (stereo not shown),5.62
6,O=C(N/N=C/c1cccs1)c1cc(-c2ccc(Cl)s2)[nH]n1,13
7,CN(CC(=O)Nc1ccc(Cl)c(C(F)(F)F)c1)C(=O)Cc1n[nH]c(=O)c2ccccc12,-16.2
8,CCCCn1c(=O)cc(C)n(-c2ccccc2)c1=O,0.0608
9,Cc1ccc(CCNC(=O)C2CCC(=O)N2C2CCCC2)cc1 (stereo not shown),4.57
10,COC(=O)[C@@H](NC(=O)N1CCN(C(=O)C2COc3ccccc3O2)CC1)C(C)C (stereo partly shown),-2.44
11,CCOc1ccc(-c2cc(NC(=O)Cn3ncc4c3-c3ccccc3OC4)on2)cc1OCC,13.6
12,CCOC(=O)NC(=S)Nc1cccc(NC(=S)NC(=O)OCC)c1,18.7
13,CC(=O)Nc1ccc(C(=O)N/N=C/c2ccc(F)cc2)cc1,-23.3
14,O=C(Cn1ncc2c1-c1ccccc1OC2)Nc1ccc(S(=O)(=O)N2CCCCC2)cc1,-1.8
15,Oc1ccc(Nc2nc(-c3cccs3)cs2)cc1,4.16
16,COc1cc2c(CCNC(C)=O)c[nH]c2cc1Cl,4.35
17,COc1ccc(CCNc2oc(COc3ccccc3F)nc2C#N)cc1OC,-12.6
18,CC(=O)NC(CC(=O)NC12CC3CC(CC(C3)C1)C2)c1ccccc1 (stereo not shown),1.55
19,CCN(CC)CCCNC1=C(Cl)C(=O)c2ccccc2C1=O,-41.1
20,O=C(NCc1ccccn1)c1cccc([N+](=O)[O-])c1,-1.38
21,CCc1sc(C(=O)NC(C)C2CCCO2)cc1Br (stereo not shown),2.9
22,Cc1ccc(CNC(=O)C(=O)c2cn(CC(=O)N3CCOCC3)c3ccccc23)cc1,-2.76
23,CCN(CC)CCN1C(=O)C(=O)/C(=C(/O)c2cccc(OC)c2)C1c1ccccn1 (stereo not shown),8.24
24,CCNC(=O)CC1C(=O)N(c2ccccc2)C(=O)N1CCc1ccc(OC)cc1 (stereo not shown),-10.3
25,Cc1ccc(N2C(=O)C3C4C=CC(C4)C3C2=O)cc1C (stereo not shown),13.3
26,CC(Cc1ccccc1)NCC(=O)Nc1cc(N(C)C)nc2ccccc12.O=C(O)C(=O)O (stereo not shown),-77.1
27,CCOC(=O)c1c(NC(=O)CSc2nnnn2C)sc(C)c1-c1ccc(C)cc1,-11.2
